The values below come from the BET-seq Pho4 binding data (Le et al. 2018).

Some of the results follow. The energies were worked out here from pooled read counts, against the library average; single values are noisy.

The assay has as its target T1, Pho4 (S. cerevisiae) (UniProt P07270).
T1 sequence: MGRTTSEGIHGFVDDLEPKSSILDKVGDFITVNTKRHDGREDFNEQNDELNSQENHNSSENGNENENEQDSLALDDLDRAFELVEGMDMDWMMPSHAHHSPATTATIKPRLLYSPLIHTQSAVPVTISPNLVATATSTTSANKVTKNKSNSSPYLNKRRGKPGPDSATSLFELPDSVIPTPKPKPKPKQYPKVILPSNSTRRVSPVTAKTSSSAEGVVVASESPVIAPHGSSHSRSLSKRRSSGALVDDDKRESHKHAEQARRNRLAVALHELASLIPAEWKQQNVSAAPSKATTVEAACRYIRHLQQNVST
The assay is described as follows: relative binding free energy (BET-seq); higher = weaker binding. The conditions noted are these: reference: library average.
As for GCTTTCACGTGTCTTT, the “relative binding free energy” value turned out to be 0.37 kcal/mol.

With ATAGACACGTGTTGGG, the “relative binding free energy” value stood at 0.03 kcal/mol.

As for GTTGACACGTGAGTCG, the “relative binding free energy” value came to 0.23 kcal/mol.

Turning to GATTACACGTGGAGGG, the “relative binding free energy” value is -0.02 kcal/mol.

For CGTGTCACGTGAAGCG, the “relative binding free energy” value is 0.3 kcal/mol.

AATCGCACGTGGTTGT: the “relative binding free energy” value is -0.11 kcal/mol.

With GGAGGCACGTGAATTT, the “relative binding free energy” value was 0.41 kcal/mol.

As for TTGGACACGTGGCAGA, the “relative binding free energy” value stood at 0.18 kcal/mol.

TTAGTCACGTGGACAT: the “relative binding free energy” value turned out to be 0.15 kcal/mol.

For CATGTCACGTGGTGTA, the “relative binding free energy” value is -0.06 kcal/mol.

Consider GGTCTCACGTGCAGGT, for which the “relative binding free energy” value was 0.42 kcal/mol.

With ATGGGCACGTGCTTGT, the “relative binding free energy” value was -0.17 kcal/mol.

In the case of GGACGCACGTGTTGGC, the “relative binding free energy” value came to 0.01 kcal/mol.

Regarding TAATACACGTGGTAAG, the “relative binding free energy” value was -0.03 kcal/mol.

For GATTGCACGTGTCGAT, the “relative binding free energy” value came out at 0.21 kcal/mol.

Regarding TTTCGCACGTGTATTA, the “relative binding free energy” value amounted to 0.24 kcal/mol.

On to AGGATCACGTGGGCGT, for which the “relative binding free energy” value is 0.05 kcal/mol.

Take TAGTTCACGTGGGATC: the “relative binding free energy” value worked out at 0.26 kcal/mol.

For the sequence CGTGGCACGTGATGGG, the “relative binding free energy” value was -0.06 kcal/mol.

TGTAGCACGTGAATTA: the “relative binding free energy” value was found to be 0.12 kcal/mol.

TAATTCACGTGTAGAA: the “relative binding free energy” value was 0.24 kcal/mol.

For CGGTACACGTGGGGCA, the “relative binding free energy” value is -0.02 kcal/mol.

In the case of GGAATCACGTGACGGG, the “relative binding free energy” value was found to be 0.32 kcal/mol.

Consider ATGGGCACGTGGTTGG, for which the “relative binding free energy” value was -0.08 kcal/mol.

As to CGGATCACGTGGGTTT, the “relative binding free energy” value came out at 0.03 kcal/mol.

In the case of TTGTTCACGTGTCAGC, the “relative binding free energy” value was determined as 0.29 kcal/mol.

As to CGGGACACGTGAATTG, the “relative binding free energy” value stood at 0.29 kcal/mol.

In the case of AGTAGCACGTGCGTGA, the “relative binding free energy” value is -0.26 kcal/mol.

Turning to GGGTCCACGTGGTGTA, the “relative binding free energy” value came to 0.1 kcal/mol.

Consider TTGTTCACGTGATAAG, for which the “relative binding free energy” value was determined as 0.35 kcal/mol.

Consider AGGGGCACGTGGTTGA, for which the “relative binding free energy” value is -0.2 kcal/mol.

In the case of GGCGCCACGTGGGCGT, the “relative binding free energy” value is -0.25 kcal/mol.

As for TTAAACACGTGGTGGG, the “relative binding free energy” value was -0.05 kcal/mol.

Take AGGTCCACGTGTTAGT: the “relative binding free energy” value was -0.07 kcal/mol.

On to AGGTTCACGTGCTCTG, for which the “relative binding free energy” value came out at 0.26 kcal/mol.

In the case of TGGCGCACGTGGCAGA, the “relative binding free energy” value was 0.01 kcal/mol.

Consider GGGTACACGTGTGTAC, for which the “relative binding free energy” value was determined as 0.05 kcal/mol.

In the case of TGACTCACGTGGCGGT, the “relative binding free energy” value is 0.13 kcal/mol.

On to GTGATCACGTGGGTAG, for which the “relative binding free energy” value was 0.09 kcal/mol.

For the sequence TATGTCACGTGGGAAA, the “relative binding free energy” value was -0.09 kcal/mol.

With CGTGTCACGTGAACGG, the “relative binding free energy” value amounted to 0.21 kcal/mol.

As to TTTAGCACGTGTAGAG, the “relative binding free energy” value is -0.12 kcal/mol.

Take ATGTACACGTGGTACG: the “relative binding free energy” value was -0.03 kcal/mol.

As for ATGTGCACGTGGCTAT, the “relative binding free energy” value was -0.17 kcal/mol.

For AGTATCACGTGACTGG, the “relative binding free energy” value was determined as 0.22 kcal/mol.

Consider GGACACACGTGGGTGC, for which the “relative binding free energy” value was 0.04 kcal/mol.

In the case of GTAGGCACGTGATTGC, the “relative binding free energy” value was -0.01 kcal/mol.

With GCGGGCACGTGTTATG, the “relative binding free energy” value was 0.07 kcal/mol.

Consider TGCGCCACGTGGTTGG, for which the “relative binding free energy” value is -0.2 kcal/mol.

Take CGAGACACGTGGATGG: the “relative binding free energy” value is 0.05 kcal/mol.

Take AAGTACACGTGCGGGT: the “relative binding free energy” value is 0.01 kcal/mol.

With AGGTTCACGTGATATG, the “relative binding free energy” value worked out at 0.41 kcal/mol.

For the sequence GTGGTCACGTGGTGCA, the “relative binding free energy” value is 0.11 kcal/mol.

Consider TGTGCCACGTGGAGCT, for which the “relative binding free energy” value was -0.12 kcal/mol.

As to ATGTGCACGTGGTACA, the “relative binding free energy” value is -0.15 kcal/mol.

Turning to TAAGACACGTGCGTTG, the “relative binding free energy” value came out at 0.01 kcal/mol.

Take TAAAGCACGTGGGGGC: the “relative binding free energy” value was -0.23 kcal/mol.

TTGTGCACGTGTGTTA: the “relative binding free energy” value stood at 0.08 kcal/mol.

For the sequence AGTCTCACGTGTGCTG, the “relative binding free energy” value is 0.15 kcal/mol.

On to GCGGTCACGTGAGGTG, for which the “relative binding free energy” value turned out to be 0.33 kcal/mol.

On to TTTATCACGTGGGTGC, for which the “relative binding free energy” value was -0.08 kcal/mol.

Turning to TATTGCACGTGCGCGT, the “relative binding free energy” value is -0.16 kcal/mol.

As for TTCGTCACGTGATGGC, the “relative binding free energy” value is 0.22 kcal/mol.

As to AGAATCACGTGTGGGG, the “relative binding free energy” value stood at 0.16 kcal/mol.

As for TTCGTCACGTGAGGCG, the “relative binding free energy” value was 0.26 kcal/mol.

As for TTACGCACGTGGAAGT, the “relative binding free energy” value was -0.06 kcal/mol.

ATTAGCACGTGAATGA: the “relative binding free energy” value was found to be 0.12 kcal/mol.

In the case of TGTACCACGTGGGTAA, the “relative binding free energy” value was determined as 0.05 kcal/mol.

With TTTTTCACGTGCCGTG, the “relative binding free energy” value was 0.29 kcal/mol.

In the case of TATGGCACGTGGGGTG, the “relative binding free energy” value was -0.19 kcal/mol.

TTTGTCACGTGAACTT: the “relative binding free energy” value came out at 0.18 kcal/mol.

As for ATATTCACGTGTATAT, the “relative binding free energy” value was found to be 0.35 kcal/mol.

Regarding TATATCACGTGTTACT, the “relative binding free energy” value was found to be 0.18 kcal/mol.

For the sequence GGATGCACGTGAAAGT, the “relative binding free energy” value turned out to be 0.17 kcal/mol.

Turning to TTGCTCACGTGAGGAG, the “relative binding free energy” value stood at 0.31 kcal/mol.

Consider GCTGGCACGTGGGATG, for which the “relative binding free energy” value is -0.13 kcal/mol.

For the sequence GTATGCACGTGTATGG, the “relative binding free energy” value was -0.04 kcal/mol.

As to AATGTCACGTGTTGTT, the “relative binding free energy” value is 0.17 kcal/mol.

For GTGTGCACGTGGGCCC, the “relative binding free energy” value was -0.1 kcal/mol.

Take TTCGGCACGTGTGGAG: the “relative binding free energy” value is -0.05 kcal/mol.

In the case of AGTGACACGTGTTCGG, the “relative binding free energy” value is 0.03 kcal/mol.

Turning to GATTTCACGTGGATAG, the “relative binding free energy” value turned out to be 0.46 kcal/mol.

For the sequence GATTGCACGTGGGGAG, the “relative binding free energy” value was -0.05 kcal/mol.

Take TAGGTCACGTGGGCAA: the “relative binding free energy” value worked out at 0.01 kcal/mol.

In the case of GTGAGCACGTGAGAGA, the “relative binding free energy” value was 0.24 kcal/mol.

In the case of AGGGGCACGTGGGAAA, the “relative binding free energy” value is -0.1 kcal/mol.

Take GGGGGCACGTGTACGC: the “relative binding free energy” value was -0.16 kcal/mol.

As to GGCAACACGTGTGGGG, the “relative binding free energy” value was 0.18 kcal/mol.

As to GTTAGCACGTGGTTTT, the “relative binding free energy” value was 0.04 kcal/mol.

Turning to GTCGGCACGTGTTTTT, the “relative binding free energy” value was found to be 0.09 kcal/mol.

Take TGGGACACGTGTCTTG: the “relative binding free energy” value stood at 0.04 kcal/mol.

Turning to AAATTCACGTGTTAGT, the “relative binding free energy” value is 0.15 kcal/mol.

As for CGTATCACGTGACGGG, the “relative binding free energy” value was determined as 0.14 kcal/mol.

Consider ATTGACACGTGGCTGG, for which the “relative binding free energy” value is -0.07 kcal/mol.

As to TAGTTCACGTGCGGCT, the “relative binding free energy” value was found to be 0.27 kcal/mol.

For TAGGTCACGTGTGGTG, the “relative binding free energy” value was found to be 0.13 kcal/mol.

As to AGGGGCACGTGTGACA, the “relative binding free energy” value was 0.03 kcal/mol.

Consider TTAAACACGTGGATAT, for which the “relative binding free energy” value was determined as 0.08 kcal/mol.

On to GATGGCACGTGGTTCA, for which the “relative binding free energy” value is -0.01 kcal/mol.

Consider ATGGTCACGTGGATCT, for which the “relative binding free energy” value came to 0.09 kcal/mol.

On to ATGGCCACGTGTGATA, for which the “relative binding free energy” value was determined as 0.05 kcal/mol.

With TAAATCACGTGAAGGG, the “relative binding free energy” value turned out to be 0.27 kcal/mol.

GTGCACACGTGTGATT: the “relative binding free energy” value was 0.16 kcal/mol.

Turning to TAATGCACGTGACATG, the “relative binding free energy” value worked out at 0.21 kcal/mol.

With TGGTCCACGTGATGAG, the “relative binding free energy” value came out at 0.2 kcal/mol.

CGTGTCACGTGAGGGA: the “relative binding free energy” value came out at 0.11 kcal/mol.

As for CGGAACACGTGGGGGA, the “relative binding free energy” value was -0.05 kcal/mol.

For the sequence TGGGACACGTGTTGAA, the “relative binding free energy” value turned out to be 0.05 kcal/mol.

Take TTGACCACGTGTGAGG: the “relative binding free energy” value is -0.03 kcal/mol.

For the sequence TGATTCACGTGTTCTA, the “relative binding free energy” value stood at 0.28 kcal/mol.

As to GATGGCACGTGTGACG, the “relative binding free energy” value is 0 kcal/mol.

With TTATTCACGTGCGGTG, the “relative binding free energy” value was 0.12 kcal/mol.

In the case of TATGACACGTGATGGG, the “relative binding free energy” value was 0.15 kcal/mol.

AGCGACACGTGGATGT: the “relative binding free energy” value came to 0.06 kcal/mol.

As for AGTTGCACGTGAGAAG, the “relative binding free energy” value is 0.26 kcal/mol.
